Source: the RNAGym collection of RNA variant scans (doi:10.1073/pnas.2313332121)
Variants at the floor of the assay are shown more often than the library holds them.

B1: TPR 5TU (parent)
chain: GGAUCUUCUCGAUCUAACAAAAAAGACAAAUCUGCCACAAAGCUUGAGAGCAUCUUCGGAUGCAGAGGCGGCAGCCUUCGGUGGCGCGAUAGCGCCAACGUUCUCAACUAUGACACGCAAAACGCGUGCUCCGUUGAAUGGAGUUUAUCAUG

Variants of: B1
Assay: polymerase ribozyme fitness, log enrichment relative to wild type (log ratio); higher = more active; in vitro selection for triplet polymerase activity
Outline: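 For each subunit of a heterodimeric triplet polymerase ribozyme, a mutant library was built by PCR and transcribed, then taken through a single in vitro selection round in triplicate. Selection involved annealing to a biotinylated primer, the partner subunit and triplets, incubation frozen at −7 °C, gel excision of extended constructs, capture on streptavidin beads and RT-PCR. Genotypes were retained after Illumina sequencing of inputs and outputs only with ≥10 input reads and ≥1 read in each output. Fitness is defined as the logarithm of a genotype's enrichment relative to wild-type enrichment, using inverse-variance-weighted averages across replicates, with the logarithm taken to base 2.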

| Variant | polymerase ribozyme fitness (log ratio) |
| --- | --- |
| G58A U145G | 0.851 |
| G58C A64G G86A | ≤ -4.2 |
| G58C A66U G80A C95U C96U U144G | ≤ -4.2 |
| G58C A73U G92A A97U | ≤ -4.2 |
| G58C C63U A120C | -0.534 |
| G58C C79A G86A U146C | ≤ -4.2 |
| G58C C79G A91G C123G G124U G141C | ≤ -4.2 |
| G58C C79G C93U | ≤ -4.2 |
| G58C C85U A89G G136A | -3.96 |
| G58C C87A C95A C116A | ≤ -4.2 |
| G58C C87G A98G | ≤ -4.2 |
| G58C C96G | -1.88 |
| G58C C96U A98G A121G | -0.614 |
| G58C C103G U109G G133A | ≤ -4.2 |
| G58C G59A G84C G140U C149U | ≤ -4.2 |
| G58C G59C C79G C103G G143U | ≤ -4.2 |
| G58C G70C G141A | ≤ -4.2 |
| G58C G70C U130G | ≤ -4.2 |
| G58C G71C A142C | ≤ -4.2 |
| G58C G84U G136U | -3.72 |
| G58C G86U U104G | -1.93 |
| G58C G88U C129A G141U | ≤ -4.2 |
| G58C G94C C132A G152U | ≤ -4.2 |
| G58C G136C G140A | ≤ -4.2 |

| Variant | polymerase ribozyme fitness (log ratio) |
| --- | --- |
| G58C U61A A66G | ≤ -4.2 |
| G58C U61A C79A A91G G117A | ≤ -4.2 |
| G58C U61A G133U A147G | ≤ -4.2 |
| G58C U61G A66U U144G | ≤ -4.2 |
| G58C U61G U102A C103G | ≤ -4.2 |
| G58U | -0.0298 |
| G58U A64U C85U | ≤ -4.2 |
| G58U A91G | -2.46 |
| G58U C69G C87G | ≤ -4.2 |
| G58U C79A | ≤ -4.2 |
| G58U C87A U109C U148C | ≤ -4.2 |
| G58U C87U C125G | -0.741 |
| G58U C96U G141A G143A | ≤ -4.2 |
| G58U C132G | -2.82 |
| G58U G62U C99U C118U U134C | ≤ -4.2 |
| G58U G65U G70U C79A C93G C105G G143C | ≤ -4.2 |
| G58U G83A C85U | -0.262 |
| G58U G83U C85G U90C C132U | ≤ -4.2 |
| G58U G86C | -1.98 |
| G58U G100C C129U | ≤ -4.2 |
| G58U U78G C79U G80A C85U C96U A106G A147C | ≤ -4.2 |
| G58U U82A G84U | -0.648 |
| G58U U135C | -1.62 |
| G59A A60C U61G A73C C93A U109G G143C | ≤ -4.2 |

| Variant | polymerase ribozyme fitness (log ratio) |
| --- | --- |
| G59A A60G G94U C95A | -1.74 |
| G59A A60U C76G C93G A107G C108G | ≤ -4.2 |
| G59A A60U C87A U127C U145G | ≤ -4.2 |
| G59A A64C G88C | ≤ -4.2 |
| G59A C75U A89C U144C A150U | ≤ -4.2 |
| G59A C76G C93G | ≤ -4.2 |
| G59A C85U U102G A106C G141A | ≤ -4.2 |
| G59A C85U U134A | -3.92 |
| G59A C93U A98U A138C | ≤ -4.2 |
| G59A C96A G117U | -0.271 |
| G59A C103A C132G | ≤ -4.2 |
| G59A C108G G124U | ≤ -4.2 |
| G59A C149A | -3.65 |
| G59A G67A C69U U111G G117U | ≤ -4.2 |
| G59A G67A C85G G88C C93A | ≤ -4.2 |
| G59A G67A C108U | ≤ -4.2 |
| G59A G68U G83C A91U | ≤ -4.2 |
| G59A G71A G141C | ≤ -4.2 |
| G59A G74A | -3.23 |
| G59A G74A G83A | ≤ -4.2 |
| G59A G80U G84C G140U | ≤ -4.2 |
| G59A G84U G92C C95G G124C | -2.69 |
| G59A G86U | -1.84 |
| G59A G88C G92U | ≤ -4.2 |

| Variant | polymerase ribozyme fitness (log ratio) |
| --- | --- |
| G59A G92U C93G C114A | ≤ -4.2 |
| G59A G92U C114A A119U | -3.59 |
| G59A G100C A142U | ≤ -4.2 |
| G59A G136C | -2.89 |
| G59A U78G C87G A106U | ≤ -4.2 |
| G59A U90C C105G A106C | ≤ -4.2 |
| G59A U90G U144G | ≤ -4.2 |
| G59C A60C A137U | ≤ -4.2 |
| G59C A60C C69U U77A U101G | ≤ -4.2 |
| G59C A60C U77A C85A G140A U144C | ≤ -4.2 |
| G59C A64G G68C G140A | ≤ -4.2 |
| G59C A64G G84A U111C | ≤ -4.2 |
| G59C A73G C76A C114U A121U | ≤ -4.2 |
| G59C A98U C125A G140C | ≤ -4.2 |
| G59C C63U C87U A107U | -3.81 |
| G59C C72A C95U G100A G141C | ≤ -4.2 |
| G59C C76A C87U A147C | -2.29 |
| G59C C76G G136A | ≤ -4.2 |
| G59C C79U C93A G141A | ≤ -4.2 |
| G59C C87A U109A G133C | ≤ -4.2 |
| G59C C87G C116G G143U | ≤ -4.2 |
| G59C C93G G140U | ≤ -4.2 |
| G59C C93U U102A A137G | -3.95 |
| G59C C95U | 0.0454 |

| Variant | polymerase ribozyme fitness (log ratio) |
| --- | --- |
| G59C C114U G128A A142U | -2.5 |
| G59C G62A G88A | ≤ -4.2 |
| G59C G62U G70C G92C | ≤ -4.2 |
| G59C G62U U102G G133C | ≤ -4.2 |
| G59C G68A C85A U151C | ≤ -4.2 |
| G59C G68C G70U G140U | ≤ -4.2 |
| G59C G71A A115G | -4.09 |
| G59C G74A U135A | ≤ -4.2 |
| G59C G81A | -2.07 |
| G59C G86A | -2.61 |
| G59C G86U A107U A113G C114U | ≤ -4.2 |
| G59C G88C A106U C108U | ≤ -4.2 |
| G59C G94C A119C U146G | -1.61 |
| G59C G124A | -1.57 |
| G59C G126U | 0.134 |
| G59C U61A U77G C96U | ≤ -4.2 |
| G59C U82G A89U C105A A107C | ≤ -4.2 |
| G59C U101G | -0.121 |
| G59C U127G U130C | ≤ -4.2 |
| G59U A73G | -0.629 |
| G59U C69A U104A A137C | ≤ -4.2 |
| G59U C69G | -1.07 |
| G59U C69U C87G C105G C129A G141A | ≤ -4.2 |
| G59U C75A C96G | ≤ -4.2 |

| Variant | polymerase ribozyme fitness (log ratio) |
| --- | --- |
| G59U C75U C76U C93G A115U | ≤ -4.2 |
| G59U C85A G140U U151G | ≤ -4.2 |
| G59U C87G | ≤ -4.2 |
| G59U C87U C108U C125A | -3.4 |
| G59U C93A G133A A138U G141A | ≤ -4.2 |
| G59U C93G A138G | ≤ -4.2 |
| G59U C93U C114G | -3.92 |
| G59U G67A G71A G74A C85A | ≤ -4.2 |
| G59U G68A U78C C93G G124A C131G G141U | ≤ -4.2 |
| G59U G152C | -2.8 |
| G59U U90A G117A | ≤ -4.2 |
| G59U U90G A91G C95A G126C U146G | ≤ -4.2 |
| G59U U139C | -3.8 |
| G59U U148C | -1.18 |
| A60C A64G G80A C99G | ≤ -4.2 |
| A60C A73G C96U U101G | -3.45 |
| A60C A73U U78G C149U | ≤ -4.2 |
| A60C A91U C118A | ≤ -4.2 |
| A60C C75U U77A C93A A150G | ≤ -4.2 |
| A60C C76A G92U C95A U145G C149G | ≤ -4.2 |
| A60C C85U C87U C93G | ≤ -4.2 |
| A60C C103A | ≤ -4.2 |
| A60C G62C G83U G133A | ≤ -4.2 |
| A60C G62C G88C | ≤ -4.2 |

| Variant | polymerase ribozyme fitness (log ratio) |
| --- | --- |
| A60C G68C G71U C114G C123U U146G | ≤ -4.2 |
| A60C G80A | -2.27 |
| A60C G84A C87G C95A C132U | ≤ -4.2 |
| A60C G88C | ≤ -4.2 |
| A60C U82G G86A U146G | -3.33 |
| A60C U82G U139A | ≤ -4.2 |
| A60C U148G A150U | ≤ -4.2 |
| A60G | 0.0111 |
| A60G A66C | ≤ -4.2 |
| A60G A66U C93U A98G G128A | ≤ -4.2 |
| A60G A73C C85G C129A C132A | ≤ -4.2 |
| A60G A73G C75A G86A A120U U135G G141C | ≤ -4.2 |
| A60G A89G | -0.778 |
| A60G A115G U144C U146A A150U | -3.85 |
| A60G C87A G140C G141C A142C | ≤ -4.2 |
| A60G C87G U135A | ≤ -4.2 |
| A60G C129G | -2.25 |
| A60G G70A C108G | ≤ -4.2 |
| A60G G74U G92U A142U | ≤ -4.2 |
| A60G G84A C87U C93A C125G | ≤ -4.2 |
| A60G G84U G88C C103U A119U | ≤ -4.2 |
| A60G G86C U148A | ≤ -4.2 |
| A60G G117C G124U | 0.122 |
